Test results as given in the supplement of paper PMC3334620.
Whole data set: some 33,000 sequences, median “E-score (-0.5 to 0.5)” near -0.016, cut for the highest 2% near 0.31. This is one part of the list.

target: Cst6 (UniProt P40535); assay: PBM E-score (8-mer binding enrichment) (E-score (-0.5 to 0.5)); higher = stronger / more preferred TF binding; most listed sequences are background and not binding sites; settings: protein concentration: 200 nM; construct: GST-DNA-binding domain
Method in brief: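 The E-score, a modified Wilcoxon-Mann-Whitney statistic, was computed by the Universal PBM Analysis Suite for every ungapped eight-base word pooled with its reverse complement. Scans behind it were normalised with masliner after bound GST-tagged yeast transcription factors were detected with fluorescent anti-GST. The proteins, at about 100-200 nM, had been applied to universal all-10-mer Agilent arrays made double-stranded by primer extension.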

Sequence	PBM E-score
TGACGTCA	0.5
ACCTTTCA	-0.116
GACGATCC	-0.00749
ACGCGGCG	0.363
CTATGGGA	-0.193
AAGTGCCC	-0.111
AAGAGCCT	-0.00834
ATGCTAAG	-0.0559
AACGTGTG	0.0429
CTCCAATC	-0.0848
GCCCAACC	-0.061
CAGACACG	-0.15
ATATTGTC	0.193
TCTTAAGA	0.0388
AAATCGGG	0.00053
ATATCTAA	0.0722
CTCGGAGA	-0.133
GTCAGATA	0.0313
ACGCTCAC	0.0778
GATACAGC	-0.0537
CTGATTGC	0.0225
ACTGCCGA	-0.0588
CACACAAC	0.0547
GCTACAGC	-0.0634
GATTGGCC	-0.165

Sequence	PBM E-score
AAACAGTT	0.0958
GCCCCCCA	-0.477
ACTTTTCT	0.0401
ATGCTGCA	-0.0817
AAGACTCA	-0.215
AGTTGCAA	0.1
ACGCACTC	0.163
AGTAGCAT	-0.0319
AAACTTGA	0.042
ACATACGC	-0.0406
AAATACTT	0.14
GGCGTAAC	-0.0656
ATGATACA	0.277
AACCCGCT	-0.28
ACTGAATA	0.197
AGAGACCA	-0.12
AACGACTA	0.108
TCCGGCAA	-0.0684
CGAGGTAA	-0.0574
CTTAGGTA	0.102
CAATCACG	0.0886
TGTAAGAA	0.288
AATAATGG	0.176
TAACTAGA	0.249
CGGTTATC	-0.0839

Sequence	PBM E-score
GGTAGATA	-0.0319
ATAAACAG	0.0792
ACATGAAC	0.0739
ATCACAGG	-0.00088
TGCTCCAA	0.0224
CCATAGGC	-0.218
ACGAGCTG	-0.0472
CAAGCGCA	0.0897
CTTCTGAC	0.095
AATTTCTG	0.142
GAGCATAA	0.125
AAATTTAA	0.242
ATACGTAG	0.186
GTTCTGCA	-0.0201
CCGTGCTA	-0.121
ACTCAGCC	-0.123
TCTCGTAA	0.305
GTATTCAC	0.149
CCCAGTCG	-0.268
ATGCTACG	0.0737
AAACGTAC	0.0107
ACCGGCGT	-0.089
TCGCTACA	-0.347
ATGAATGC	0.132
CTCATAAC	0.057

Sequence	PBM E-score
ATGACAAT	0.267
CGCCTCTC	-0.277
GAATGCTC	-0.205
CAGGCTGA	-0.108
CCACCAAC	-0.113
TAAAGACA	0.00445
CTCACCGC	-0.0709
GCACCCGC	0.0394
AGGGTGAT	0.152
CGAATCGC	0.005
AGTTAATA	0.216
AGACAGCT	-0.22
CTTGAGAC	-0.193
CATGACCG	0.0772
CACGAATG	0.0198
ACGCCTTC	-0.0283
AGACCTCT	-0.216
ATAGGTAA	0.0762
ACTGCACT	-0.0549
CGCAAAAC	0.231
CGAAGACC	-0.16
CTCTTAAG	-0.0771
AGTCGCCA	-0.329
ATCCCCGG	-0.282
CTTTGAGC	-0.225

Sequence	PBM E-score
ATGCCCAT	-0.156
ACTGCACA	-0.0951
CATCGTCG	-0.112
GGGAAGAA	-0.0773
ACACAAGG	0.0528
ATAGGTCG	-0.126
ATCCTGCG	-0.0914
TCCTTCCA	-0.178
CATTATTC	0.0584
CAGGGAGG	-0.181
CCACGACA	-0.172
ACGCTGGA	-0.0876
CTGTTATC	0.102
GATATTTA	0.138
CGTCAACC	0.377
TAGTTGCA	0.094
CAGAAGCG	0.0621
CGTGCGGC	0.321
GTTTTAAA	0.196
GCGGGTGA	0.207
GTGTCCAA	0.0765
GTAATTAC	0.287
ACCGTAGC	-0.17
ACCTCATG	0.116
GCCGCAGC	0.127

Sequence	PBM E-score
GGAGAATA	0.103
ATTGCAGG	0.0558
TTTACAAA	0.226
AGATGGTG	-0.236
ATTGAAAT	0.251
CCGGCGCG	-0.0219
TATGTAAA	0.303
ATCATCAG	0.259
AGTATCAA	0.213
CCGCTTCG	-0.195
CGGTTGGA	-0.166
AACAAGCA	-0.0992
CAACGCGA	-0.125
ACGGACGC	0.0161
ACCGCGCA	-0.096
GTTGGCCA	-0.132
GAACGAGA	-0.0792
CCACTACG	-0.0331
GGTGGGCA	-0.155
AAACGTCA	0.463
ATTCGGTC	0.148
GAGACAGA	0.0353
ACGCACGT	0.0305
ACGATAGA	-0.00516
CCATGTTC	-0.0334

Sequence	PBM E-score
AGATCCGG	-0.205
AAAAGAAT	0.216
GACGCGAA	0.0485
TACGACAA	0.0779
CGCGTACC	-0.0413
ACCACTCC	-0.256
ACAGGTAT	0.121
AGAAGATG	-0.0385
GTGCGAAC	-0.19
AGCCTTTA	0.0465
ATCGCGGA	-0.244
CTACAGTC	-0.134
ACATAACG	0.175
CCCCGTGC	0.0645
CCTTTATA	-0.0148
ATTTGCGA	0.186
CCTCCACG	-0.00565
AAGGGGAG	-0.344
CGGGTAGA	-0.172
CATCACCA	0.372
CTGCAGTA	-0.00258
TCTAAAAA	0.118
